Assay results from patent US7592316B2, “Peptides as NS3-serine protease inhibitors of hepatitis C virus” (Schering Corporation, priority 2000, dated 2009).
*1 amine or outer side, *2 acyl side, *3 side chain or, on linkers, in order; H or OH if unused. Where a SMILES comes first, the peptide text is derived from it. [ ]: non-standard residue; d: D form. The star is where a group is joined. Pro(3R,4S-CMe2) = CC1(C)[C@@H]2[C@@H](C(=O)O)NC[C@@H]21; Pro(3S,4R-CMe2) = CC1(C)[C@H]2[C@@H](C(=O)O)NC[C@H]21; X54 = O=C(C(=O)[*:2])C(CCC(F)(F)F)N[*:1]; X96 = CCC(F)(F)CC(N[*:1])C(=O)C(=O)[*:2]; Igl = N[C@H](C(=O)O)C1Cc2ccccc2C1; X4 = CCCCC(N[*:1])C(=O)C(=O)[*:2]; Phg = N[C@H](C(=O)O)c1ccccc1; Tle = CC(C)(C)[C@H](N)C(=O)O; Boc = CC(C)(C)OC(=O)*; CO = O=C([*:1])[*:2]; NHtBu = CC(C)(C)N*

Target: HCV NS3/NS4A protease (strain 1a) (Hepatitis C virus genotype 1a, UniProt P27958)
Assay: biochemical
Conditions: Table 5; HCV NS3/NS4A protease, spectrophotometric assay, 30° C., pH 6.5; read-out: Ki* Range

Ki [nM] | SMILES
> 1000 | CCCC(NC(=O)[C@@H]1CC(NS(=O)(=O)c2ccc(OC)cc2)CN1C(=O)[C@@H](NC(=O)OC(C)(C)C)C1CCCCC1)C(=O)C(N)=O (stereo partly shown)
> 1000 | CCCC(NC(=O)C1C2C(CN1C(=O)C(NC(=O)Cc1cn(C)cn1)C1CCCCC1)C2(C)C)C(=O)C(N)=O (stereo not shown)
101 to 1000 | C=CCC(NC(=O)[C@@H]1[C@@H]2[C@H](CN1C(=O)[C@@H](NC(=O)OC(C)(C)C)C1CCCCC1)C2(C)C)C(=O)C(=O)NCC(=O)NCc1ccc(C)cc1 (stereo partly shown)
1 to 100 | CC(C)(C)OC(=O)NC(C(=O)N1C[C@@H]2[C@H]([C@H]1C(=O)NC(CC1CCC1)C(=O)C(N)=O)C2(Cl)Cl)C(C)(C)C (stereo partly shown)
> 1000 | C=CCCC(NC(=O)[C@@H]1C2OC(C)(C)OC2CN1C(=O)[C@@H](NC(=O)OC(C)(C)C)C(C)(C)C)C(=O)C(N)=O (stereo partly shown)
> 1000 | CC(C)(C)CC(=O)N1C[C@H]2[C@@H]([C@H]1C(=O)NC(CC1CC1)C(=O)C(N)=O)C2(C)C (stereo partly shown)
101 to 1000 | CC(C)(O)COC(=O)N[C@H](C(=O)N1C[C@H]2[C@@H]([C@H]1C(=O)NC(CC1CC1)C(=O)C(N)=O)C2(C)C)C(C)(C)C (stereo partly shown)
> 1000 | CCCC(NC(=O)[C@@H]1C2C(CN1C(=O)C(NC(=O)OC(C)(C)C)C(C)(C)C)C2(C)C)C(=O)C(=O)NC/C=C/c1ccccc1 (stereo partly shown)
1 to 100 | C=CCCNC(=O)C(=O)C(CCC=C)NC(=O)[C@@H]1[C@@H]2[C@H](CN1C(=O)[C@@H](NC(=O)OC(C)(C)C)C1CCCCC1)C2(C)C (stereo partly shown)
101 to 1000 | C=CCNC(=O)C(=O)C(CCC)NC(=O)[C@@H]1[C@@H]2[C@H](CN1C(=O)[C@@H](NC(=O)[C@H](CC(C)C)NS(C)(=O)=O)C(C)(C)C)C2(C)C (stereo partly shown)
> 1000 | COC(=O)C(=O)C(CC1CC1)NC(=O)[C@@H]1[C@@H]2[C@H](CN1C(=O)[C@@H](NC(=O)OC(C)(C)C)C1CCCCC1)C2(C)C (stereo partly shown)
> 1000 | CCCC(NC(=O)C1C2CCC(C2)N1C(=O)[C@H](NC(=O)OC(C)(C)C)C(C)(C)C)C(=O)C(=O)NCC(=O)OCc1ccccc1 (stereo partly shown)
101 to 1000 | CC1(OC(=O)N[C@H](C(=O)N2C[C@H]3[C@@H]([C@H]2C(=O)NC(CC2CC2)C(=O)C(N)=O)C3(C)C)C(C)(C)C)CC1 (stereo partly shown)
1 to 100 | C=CCC(NC(=O)[C@@H]1[C@@H]2[C@H](CN1C(=O)[C@@H](NC(=O)OC(C)(C)C)C(C)(C)C)C2(C)C)C(=O)C(=O)NCC(=O)NCc1ccccc1C (stereo partly shown)
1 to 100 | C=CCCC(NC(=O)[C@@H]1[C@H]2[C@@H](CN1C(=O)[C@@H](NC(=O)NC(C)C)C1Cc3ccccc3C1)C2(C)C)C(=O)C(=O)NCC=C (stereo partly shown)
101 to 1000 | CCCC(NC(=O)[C@@H]1[C@@H]2[C@H](CN1C(=O)[C@@H](NC(=O)OC(C)(C)C)C(C)(C)C)C2(C)C)C(=O)C(=O)NCc1ccccc1 (stereo partly shown)
101 to 1000 | CCCC(NC(=O)C1C2C(CN1C(=O)C(NC(=O)NC(C)c1ccccc1)C1CCCCC1)C2(C)C)C(=O)C(N)=O (stereo not shown)

SMILES | Ki [nM]
CCCCC(NC(=O)[C@@H]1[C@H]2[C@@H](CN1C(=O)[C@@H](NC(=O)NC(C)(C)C)C(C)(C)C)C2(C)C)C(=O)C(=O)NCC(=O)N[C@H](C(=O)N(C)C)c1ccccc1 (stereo partly drawn) ({NHtBu-CO}-[Tle][Pro(3S,4R-CMe2)][X4]G[Phg]-NMe2) | 1 to 100

Same assay, conditions: Table 6; HCV NS3/NS4A protease, 30° C., pH 6.5; read-out: Ki*

Ki [nM] | SMILES
1 to 100 | CN(C)C(=O)C(NC(=O)CNC(=O)C(=O)C(CC1CC1)NC(=O)[C@@H]1[C@@H]2[C@H](CN1C(=O)[C@@H](NC(=O)NC(C)(C)C)C(C)(C)C)C2(F)F)c1ccccc1 (stereo partly shown)
1 to 100 | CC1(C)[C@@H]2[C@@H](C(=O)NC(CC3CC3)C(=O)C(N)=O)N(C(=O)[C@@H](NC(=O)OC(CF)CF)C3CCCCC3)C[C@@H]21 (stereo partly shown)
101 to 1000 | COC(=O)C1(NC(=O)N[C@H](C(=O)N2C[C@H]3[C@@H]([C@H]2C(=O)NC(CC2CC2)C(=O)C(N)=O)C3(Cl)Cl)C(C)(C)C)CCCC1 (stereo partly shown)
1 to 100 | C#CCCC(NC(=O)[C@@H]1[C@@H]2[C@H](CN1C(=O)[C@@H](NC(=O)OC(C)(C)C)C1CCCCC1)C2(C)C)C(=O)C(=O)NCCC(=O)N(C)Cc1ccccc1 (stereo partly shown)
101 to 1000 | CNC(=O)C(=O)C(CCC(F)(F)F)NC(=O)[C@@H]1[C@@H]2[C@H](CN1C(=O)[C@@H](NC(=O)OC(C)(C)C)C1Cc3ccccc3C1)C2(C)C (stereo partly shown)

SMILES | Ki [nM]
CN(C)C(=O)[C@@H](NC(=O)CNC(=O)C(=O)C(CCC(F)(F)F)NC(=O)[C@@H]1[C@@H]2[C@H](CN1C(=O)[C@@H](NC(=O)OC(C)(C)C)C1Cc3ccccc3C1)C2(C)C)c1ccccc1 (stereo partly drawn) (Boc-[Igl][Pro(3R,4S-CMe2)][X54]G[Phg]-NMe2) | 1 to 100
CCC(F)(F)CC(NC(=O)[C@@H]1[C@@H]2[C@H](CN1C(=O)[C@@H](NC(=O)NC(C)(C)C)C(C)(C)C)C2(C)C)C(=O)C(=O)NCC(=O)N[C@H](C(=O)N(C)C)c1ccccc1 (stereo partly drawn) ({NHtBu-CO}-[Tle][Pro(3R,4S-CMe2)][X96]G[Phg]-NMe2) | 1 to 100
